# Data taken from PubChem BioAssay (NCATS).
# Inconclusive means that the source gave no clear call. Such entries were picked first, then a sample of the others. For some assays here: No potency is given beside an inconclusive call; the fits are too rough. Activity calls are given as the source filed them. Unless noted, calls come from the whole dose curve; as a rule, active = well fitted curve in the direction sought with a large enough effect; inconclusive = small, poorly fitted or top-dose-only effect, or another doubt; inactive = no such curve, though single readings can be large; an effect the other way counts as inactive or inconclusive.
# Legend:
# [1] = NFAT Signaling Pathway (AID 444; active = well fitted curve in either direction with a large enough effect, not every such curve was filed as active; inconclusive = small, poorly fitted or top-dose-only effect, or another doubt;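 note: carbachol stimulus at about its EC50 of 1 µM final; % is set by controls: 0 for no effect and ±100 for the full control effect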); details: Jurkat NFAT-bla M1, carbachol, beta-lactamase ratio, 5 h
# How it was run: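 Jurkat cells with NFAT-driven β-lactamase reporter and co-expressed M1 receptor, stimulated with carbachol (final 1 uM, ~EC50), compound titration, 5 h at 37 °C. CCF4 loaded 1 h at RT; 460/530 nm ratio gave %activity and AC50.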
# [2] = target: Mitogen-activated protein kinase 10 (Mus musculus) (UniProt Q61831); experiment: JNK3 AlphaScreen Assay (AID 530; active = well fitted curve in either direction with a large enough effect, not every such curve was filed as active; inconclusive = small, poorly fitted or top-dose-only effect, or another doubt;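 note: kinase came from lysate of stimulated human HepG2 cells; signal reports phosphorylation of biotinylated GST-cJun 1-79 at Ser73 with 10 µM ATP; % is set by controls: 0 for no effect and ±100 for the full control effect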); details: JNK3 lysate, c-Jun phosphorylation; activity change, negative = inhibition: at 57.1 µM (top of the series)
# How it was run: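 HepG2 lysate (IL-1b/TNFa pre-activated) + biotin-GST-cJun 1-79 + anti-pSer73 cJun; cpd titration, 15 min RT; ATP 10 uM start; Tris pH 7.6, MgCl2, DTT, vanadate; beads in EDTA buffer; AlphaScreen.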
# [3] = Cell Viability - H-4-II-E (AID 543);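 note: potency is the fitted concentration of half-maximal effect; cells exposed to compound for 40 hours; nearly all actives have a fitted effect of over 35% in size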
# How it was run: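 qHTS, rat hepatoma H-4-II-E, 1500 cells/well; 40 hr compound exposure, 37 °C; CellTiter-Glo ATP luminescence after 20 min RT; AC50 by standard Hill fit.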
# [4] = qHTS Assay for Identification of Small Molecule Antagonists for Thrombopoietin (TPO) Signaling Pathway (AID 918); details: TPO-dependent cell signaling reporter, antagonist mode; activity change, negative = inhibition: at 38.5 µM (top of the series); note: nearly all actives have a fitted effect of over 60% in size
# How it was run: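 Luminescence read-out: GPIIb-promoter luciferase in Ba/F3 cells carrying human TPO receptor. Compounds added with 26 pM TPO (EC50), 24 hrs, 37 C, 5% CO2; cells deprived of IL-3 overnight beforehand. Inhibition of signal scored.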
# [5] = target: Muscarinic acetylcholine receptor M1 (Rattus norvegicus) (UniProt P08482); experiment: qHTS Assay for Antagonists of Acetylcholine Muscarinic M1 Receptor: Kinetic Measurement of Intracellular Calcium Response (AID 943); note: potency is the fitted concentration of half-maximal effect; nearly all actives have a fitted effect of over 75% in size
# Chain of UniProt P08482 (P08482 whole entry, looked up): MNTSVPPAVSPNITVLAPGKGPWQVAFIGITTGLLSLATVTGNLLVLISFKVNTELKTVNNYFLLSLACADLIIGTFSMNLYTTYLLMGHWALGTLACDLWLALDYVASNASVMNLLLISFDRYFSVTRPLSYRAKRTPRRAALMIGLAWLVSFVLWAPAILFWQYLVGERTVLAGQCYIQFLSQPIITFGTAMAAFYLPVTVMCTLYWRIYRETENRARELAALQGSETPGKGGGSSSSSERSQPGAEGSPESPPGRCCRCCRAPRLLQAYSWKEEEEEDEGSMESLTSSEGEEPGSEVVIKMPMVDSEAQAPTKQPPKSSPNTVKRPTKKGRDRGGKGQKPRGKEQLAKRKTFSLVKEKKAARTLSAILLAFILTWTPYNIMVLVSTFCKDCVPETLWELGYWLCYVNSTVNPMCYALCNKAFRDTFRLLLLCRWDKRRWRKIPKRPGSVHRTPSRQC
# How it was run: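 Read-out: peak over basal Fluo-4 fluorescence, kinetic at 1 Hz for 4 min after EC80 carbachol (100 nM final). Rat M1-CHO cells, dye loaded 1 h at 37C, compound added 10 min before agonist.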
# [6] = target: Muscarinic acetylcholine receptor M1 (Rattus norvegicus) (UniProt P08482); experiment: qHTS Assay for Antagonists of Acetylcholine Muscarinic M1 Receptor: Measurement of IP-One Response (AID 944); note: nearly all actives have a fitted effect of over 75% in size
# [7] = Cell Viability - LYMP1-003 - Assay at 24 hr (AID 963); details: LYMP1-003 lymphoblastoid cell viability; at 92.2 µM (top of the series);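 note: plate controls were DMSO only for no effect and tetraoctylammonium bromide positive control for full effect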
# How it was run: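 CellTiter-Glo luminescence (intracellular ATP) read after 24 hr, 37 C compound exposure of 2500 LYMP1-003 human lymphoblastoid cells/well in complete medium; qHTS concentration series; AC50 via standard Hill equation.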
# [8] = target: RecQ-like DNA helicase BLM (Homo sapiens) (UniProt P54132); experiment: qHTS Validation Assay for Inhibitors of Bloom's syndrome helicase (BLM) (AID 2364); note: potency is the fitted concentration of half-maximal effect
# How it was run: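 50 nM BLM preincubated 15 min at room temperature with compound in pH 8.0 Tris buffer containing 2.5 ug/ml poly(dI-dC); started with 200 nM TAMRA/BHQ-2 forked duplex and 2 mM ATP (final). Unwinding read as TAMRA fluorescence increase, two reads 2 h apart.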
# [9] = target: ATPase family AAA domain-containing protein 5 (Homo sapiens) (UniProt Q96QE3); experiment: Validation screen for small molecules that inhibit ELG1-dependent DNA repair in human embryonic kidney (HEK293T) cells expressing luciferase-tagged ELG1 (AID 493107); details: HEK293T ELG1-luciferase level, luminescence, 5-fluorouridine co-treatment, 16 h; activity change, negative = decrease: at 46.1 µM (top of the series); note: potency is the fitted concentration of half-maximal effect; nearly all actives have a fitted effect of over 70% in size
# Chain of UniProt Q96QE3 (Q96QE3 whole entry, looked up, the tested form may be a part): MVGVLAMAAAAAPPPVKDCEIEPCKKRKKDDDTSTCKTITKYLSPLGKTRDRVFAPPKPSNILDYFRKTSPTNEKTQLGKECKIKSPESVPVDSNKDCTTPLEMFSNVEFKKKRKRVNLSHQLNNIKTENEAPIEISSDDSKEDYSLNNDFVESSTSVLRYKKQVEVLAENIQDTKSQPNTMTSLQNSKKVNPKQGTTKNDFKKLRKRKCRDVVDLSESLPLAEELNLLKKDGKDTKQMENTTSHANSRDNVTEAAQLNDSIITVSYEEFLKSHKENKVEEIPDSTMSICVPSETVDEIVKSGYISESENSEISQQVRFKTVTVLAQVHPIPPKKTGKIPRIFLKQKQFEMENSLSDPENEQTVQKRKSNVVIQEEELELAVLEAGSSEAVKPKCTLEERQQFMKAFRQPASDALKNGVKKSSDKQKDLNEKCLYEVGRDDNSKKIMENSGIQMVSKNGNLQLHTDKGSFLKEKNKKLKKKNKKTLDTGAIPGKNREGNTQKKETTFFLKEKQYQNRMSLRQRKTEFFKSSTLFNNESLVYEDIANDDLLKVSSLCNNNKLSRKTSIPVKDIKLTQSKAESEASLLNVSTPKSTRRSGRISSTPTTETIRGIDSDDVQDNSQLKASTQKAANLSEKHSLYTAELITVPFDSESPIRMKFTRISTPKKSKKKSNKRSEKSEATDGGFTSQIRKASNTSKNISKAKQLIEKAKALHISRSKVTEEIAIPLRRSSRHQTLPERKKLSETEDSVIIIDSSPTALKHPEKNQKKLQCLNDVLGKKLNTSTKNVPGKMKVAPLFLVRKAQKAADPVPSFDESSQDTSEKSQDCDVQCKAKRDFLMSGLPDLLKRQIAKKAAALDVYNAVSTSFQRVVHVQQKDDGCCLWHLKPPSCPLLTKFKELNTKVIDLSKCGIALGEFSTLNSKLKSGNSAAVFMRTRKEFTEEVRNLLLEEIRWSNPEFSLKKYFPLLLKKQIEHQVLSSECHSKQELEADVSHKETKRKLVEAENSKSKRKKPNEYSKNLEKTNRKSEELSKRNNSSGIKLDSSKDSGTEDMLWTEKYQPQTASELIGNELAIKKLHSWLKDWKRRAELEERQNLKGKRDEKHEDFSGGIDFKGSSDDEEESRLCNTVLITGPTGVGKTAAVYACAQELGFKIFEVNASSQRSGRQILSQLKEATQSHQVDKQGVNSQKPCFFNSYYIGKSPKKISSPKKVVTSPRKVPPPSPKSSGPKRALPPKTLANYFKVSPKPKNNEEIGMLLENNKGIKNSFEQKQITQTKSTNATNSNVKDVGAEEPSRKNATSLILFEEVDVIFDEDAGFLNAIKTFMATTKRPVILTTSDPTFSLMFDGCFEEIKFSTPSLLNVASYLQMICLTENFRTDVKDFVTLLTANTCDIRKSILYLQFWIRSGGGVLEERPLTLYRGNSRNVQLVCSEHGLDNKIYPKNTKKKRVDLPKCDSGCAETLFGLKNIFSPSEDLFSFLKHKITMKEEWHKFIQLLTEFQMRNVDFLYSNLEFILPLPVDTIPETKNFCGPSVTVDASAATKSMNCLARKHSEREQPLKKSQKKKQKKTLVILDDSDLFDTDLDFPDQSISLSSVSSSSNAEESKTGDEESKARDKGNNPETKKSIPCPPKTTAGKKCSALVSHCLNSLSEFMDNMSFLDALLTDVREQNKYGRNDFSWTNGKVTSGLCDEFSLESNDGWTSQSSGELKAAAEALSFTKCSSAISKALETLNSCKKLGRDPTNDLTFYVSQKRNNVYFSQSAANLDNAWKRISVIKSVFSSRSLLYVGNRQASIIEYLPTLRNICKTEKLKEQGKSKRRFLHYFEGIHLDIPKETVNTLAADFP
# How it was run: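 ELG1-luciferase HEK293T reporter; 5-fluorouridine + compound/DMSO, 16 hr, 37 °C, 5% CO2; ONE-Glo 30 min RT; luminescence read, qHTS format.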
# [10] = target: Peroxisome proliferator-activated receptor gamma (Homo sapiens) (UniProt P37231); experiment: qHTS assay for small molecule agonists of peroxisome proliferator-activated receptor gamma signaling (AID 588536; active = well fitted curve in the direction sought with a large enough effect in the signal ratio, with a control signal flat, not every such curve was filed as active; inconclusive = small, poorly fitted or top-dose-only effect, or effect the other way, or a change in a side signal; inactive = no such curve, though single readings can be large or run the other way; the % refers to the signal ratio;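 note: 0% = DMSO basal wells and 100% = rosiglitazone at 2 µM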); details: HEK293 PPARg-UAS-bla, beta-lactamase ratio, 16 h; activation: at 76.7 µM (top of the series), percent of rosiglitazone response, DMSO as zero
# Chain of UniProt P37231 (P37231 whole entry, looked up): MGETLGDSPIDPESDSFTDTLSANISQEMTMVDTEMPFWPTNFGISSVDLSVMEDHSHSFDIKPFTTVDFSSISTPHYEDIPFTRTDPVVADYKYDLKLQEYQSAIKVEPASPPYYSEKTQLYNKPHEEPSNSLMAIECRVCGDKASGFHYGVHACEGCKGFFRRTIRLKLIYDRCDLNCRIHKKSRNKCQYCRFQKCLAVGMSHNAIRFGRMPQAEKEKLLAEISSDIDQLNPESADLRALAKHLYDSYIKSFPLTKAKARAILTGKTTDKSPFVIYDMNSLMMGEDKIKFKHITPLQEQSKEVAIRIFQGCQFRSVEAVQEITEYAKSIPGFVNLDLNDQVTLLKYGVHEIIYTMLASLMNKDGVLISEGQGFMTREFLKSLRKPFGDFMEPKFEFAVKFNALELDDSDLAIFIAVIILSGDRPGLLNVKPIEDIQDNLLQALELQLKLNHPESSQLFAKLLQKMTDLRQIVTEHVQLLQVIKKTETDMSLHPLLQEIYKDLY
# How it was run: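 Using GeneBLAzer HEK293 cells, response was quantified by CCF4 fluorescence and normalized between basal DMSO (0%) and rosiglitazone 2 uM (100%); curves yielded half-maximal stimulation concentration and efficacy.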
# [11] = target: Peroxisome proliferator-activated receptor gamma (Homo sapiens) (UniProt P37231); experiment: qHTS assay for small molecule antagonists of peroxisome proliferator-activated receptor gamma signaling (AID 588537; active = well fitted inhibition curve with a large enough effect in the signal ratio, with a control signal flat, not every such curve was filed as active; inconclusive = small, poorly fitted or top-dose-only effect, or effect the other way, or a change in a side signal; the % refers to the signal ratio;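 note: reporter cells co-stimulated with 50 nM rosiglitazone agonist during compound treatment; % of control where 0% means no effect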); details: HEK293 PPARg-UAS-bla, beta-lactamase ratio, antagonist mode; activity, negative = inhibition: at 76.8 µM (top of the series)
# How it was run: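 Read-out: CCF4 fluorescence (ex 405, em 460/530 nm) after 2 h at RT. Cells were HEK293 carrying a UAS-bla reporter and treated 16 h at 37 C with compound plus rosiglitazone (50 nM final). Normalized to rosiglitazone and DMSO.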
# [12] = S16 Schwann cell PMP22 intronic element beta-lactamase assay (AID 624044; calls by dose curve;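 note: 0% = DMSO and -100% = potassium clavulanate positive control; nearly all actives have a fitted effect of over 15% in size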); details: S16 rat Schwann cells, PMP22 element beta-lactamase FRET, 24 h; ratio activity, negative = inhibition: at 38.3 µM (top of the series) unless noted
# How it was run: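 Beta-lactamase reporter under a PMP22 intronic regulatory element in stable S16 rat Schwann cells; 24 h compound exposure. 460 nm blue signal normalized between DMSO (0%) and potassium clavulanate, with 535 nm FRET tracking viability; curves classed by r2 and response.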
# [13] = qHTS assay to identify small molecules that stimulate interleukin-8 (IL-8) secretion (AID 651758; active = well fitted activation curve with a large enough effect in the signal ratio; inconclusive = small, poorly fitted or top-dose-only effect, or effect the other way, or a change in a side signal; the % refers to the signal ratio; note: potency is the fitted concentration of half-maximal effect); details: HTRF ratio (665/615); activation: at 92.2 µM (top of the series)
# How it was run: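 Compounds are added to THP-1 cells (2000 per well) and left 16 hrs at 37 C. A labeled anti-IL-8 antibody pair is then added, and IL-8 secretion is measured by time-resolved FRET after 1-3 hrs at room temperature.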
# [14] = NS1 protein of Zika virus - qHTS assay to identify small molecule inhibitors in human HEK 293 cells (AID 1347053);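 note: plate controls were infected untreated cells for no effect and uninfected cells for full effect; nearly all actives have a fitted effect of over 55% in size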
# How it was run: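 Compound-treated (1 h pre-infection) HEK 293 cells infected with ZIKV MR766, MOI = 0.5; after 24 h at 37 C, NS1 read by TR-FRET; data normalized to uninfected and infected controls.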
# [15] = qHTS of pediatric cancer cell lines to identify multiple opportunities for drug repurposing: Primary screen for SK-N-MC cells (AID 1347093); details: SK-N-MC viability, CellTiter-Glo luminescence, 48 h; activity change, negative = cytotoxic: at 46 µM (top of the series); note: potency is the fitted concentration of half-maximal effect
# How it was run: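 Metabolically active cells were quantified by ATP-dependent luminescence (CellTiter-Glo, 15 min at room temperature) following 48 h treatment. Cells had been plated at 500-1,000 per well and settled for 5 h beforehand.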
# [16] = qHTS of pediatric cancer cell lines to identify multiple opportunities for drug repurposing: Primary screen for OHS-50 cells (AID 1347103); details: OHS-50 osteosarcoma viability, CellTiter-Glo luminescence, 48 h; activity change, negative = cytotoxic: at 57.3 µM (top of the series);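 note: plate controls were DMSO neutral control for no effect and bortezomib positive control for full effect; nearly all actives have a fitted effect of over 40% in size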
# How it was run: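 Cells (500-1,000/well) rested 5 h, then received compounds for 48 h; metabolically active cells were measured by CellTiter-Glo luminescence. Final concentrations spanned up to 46 µM (MIPE, 11-point) or 0.59 nM-46 µM (NPC, 8-point) in primary screens, 11-point in follow-ups.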
# [17] = A High-Content qHTS Against Drug Library for the Identification of Small Molecules that Inhibit DYT1 Early Onset Primary Dystonia-Associated Cell Pathology (AID 1645839; calls by dose curve)
# How it was run: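 Cells were seeded and left for 24 h, then dosed with compound alongside tetracycline induction of mutant EGFP-TorsinA. They were incubated for 48 h, fixed in 4% paraformaldehyde, permeabilized and imaged for mislocalization (%pathology) and cell count.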
# Papain (Carica papaya) = Papain (Carica papaya) (UniProt P00784); experiment: Primary qHTS assay for inhibitors of the protease papain (AID 1645873);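 note: papain turnover of Z-FR-AMC read as the AMC fluorescence gain over 10 min; potency is the fitted concentration of half-maximal effect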
# Chain of UniProt P00784 (P00784 whole entry, looked up): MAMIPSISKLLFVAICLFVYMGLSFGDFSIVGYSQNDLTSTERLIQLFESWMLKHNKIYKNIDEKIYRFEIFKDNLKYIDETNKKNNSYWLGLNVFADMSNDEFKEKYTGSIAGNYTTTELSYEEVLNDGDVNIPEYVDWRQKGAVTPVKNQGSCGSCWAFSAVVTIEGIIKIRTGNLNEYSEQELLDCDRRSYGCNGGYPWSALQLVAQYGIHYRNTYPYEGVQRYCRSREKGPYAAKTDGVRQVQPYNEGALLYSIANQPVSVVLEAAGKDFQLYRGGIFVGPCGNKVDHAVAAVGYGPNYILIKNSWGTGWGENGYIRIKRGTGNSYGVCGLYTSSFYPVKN
# [18] = target: Rap guanine nucleotide exchange factor 3 (Homo sapiens) (UniProt O95398); experiment: Confirmatory qHTS for antagonist of cAMP-regulated guanine nucleotide exchange factor 3 (EPAC1) (AID 1645880);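 note: plate controls were DMSO only for no effect and full effect of the ATA control for full effect; nearly all actives have a fitted effect of over 55% in size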
# Chain of UniProt O95398 (O95398 whole entry, looked up): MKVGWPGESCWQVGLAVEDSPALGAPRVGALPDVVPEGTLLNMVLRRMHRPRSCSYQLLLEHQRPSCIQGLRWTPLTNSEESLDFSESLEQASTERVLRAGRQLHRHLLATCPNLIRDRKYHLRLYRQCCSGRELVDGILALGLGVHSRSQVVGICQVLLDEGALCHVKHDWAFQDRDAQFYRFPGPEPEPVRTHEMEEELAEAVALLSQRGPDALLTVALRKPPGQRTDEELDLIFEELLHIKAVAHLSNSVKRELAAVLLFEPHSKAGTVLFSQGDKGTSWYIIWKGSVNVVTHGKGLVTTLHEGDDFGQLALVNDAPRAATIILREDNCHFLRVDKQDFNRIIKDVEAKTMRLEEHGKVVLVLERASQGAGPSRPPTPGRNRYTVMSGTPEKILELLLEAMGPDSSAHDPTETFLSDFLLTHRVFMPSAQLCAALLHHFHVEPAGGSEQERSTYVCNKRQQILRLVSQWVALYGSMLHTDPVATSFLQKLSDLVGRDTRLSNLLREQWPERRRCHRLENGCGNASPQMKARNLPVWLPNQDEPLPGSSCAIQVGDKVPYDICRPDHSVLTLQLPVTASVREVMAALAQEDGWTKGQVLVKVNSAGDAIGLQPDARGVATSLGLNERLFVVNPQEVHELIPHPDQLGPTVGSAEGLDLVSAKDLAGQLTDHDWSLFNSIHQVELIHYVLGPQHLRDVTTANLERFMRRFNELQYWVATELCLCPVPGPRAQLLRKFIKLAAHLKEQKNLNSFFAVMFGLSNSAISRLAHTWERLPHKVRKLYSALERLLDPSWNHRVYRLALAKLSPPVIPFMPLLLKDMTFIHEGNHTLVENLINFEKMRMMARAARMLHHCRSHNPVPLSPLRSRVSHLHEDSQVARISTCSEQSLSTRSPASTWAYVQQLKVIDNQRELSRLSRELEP
# How it was run: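 Released BODIPY-GDP fluoresces less than Rap1-bound BODIPY-GDP; the signal is followed at 480/540 nm at 5-min intervals over 30 min, after 5 min at room temperature. Reactions contain 100 nM EPAC1, 250 nM RAP1B-BODIPY-GDP and 50 uM GDP; results are normalized to ATA and DMSO.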
# SKOV3 = experiment: Primary qHTS to identify gynecologic anti-cancer compounds using libraries of approved drugs and bioactive compounds (AID 1345084); details: Gynecologic cancer cell panel viability, ATPlite luminescence, 48 h; series mostly up to 57.5 µM; note: potency is the fitted concentration of half-maximal effect; nearly all actives have a fitted effect of over 55% in size
# How it was run: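 Luminescence from the ATPlite ATP-monitoring reagent indicates viable cell number; lower signal means cytotoxicity. Cells received compound 16 h after seeding and were exposed for 48 h across five concentrations.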
# [19] = Drug repurposing screens with cells derived from glioblastoma tumor samples (AID 1345199); details: GBM patient neurospheres viability, ATP luminescence, 48 h; Potency: tumour line A unless noted; activity, negative = cell killing: at 46 µM (top of the series), tumour line A unless noted; note: nearly all actives have a fitted effect of over 40% in size; note: potency is the fitted concentration of half-maximal effect; for activity, negative = cell killing: % is set by controls: 0 for no effect and ±100 for the full control effect
# How it was run: (§1)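 Primary testing used CD133+ neurospheres from four GBM patients, seven concentrations, 48 h exposure and ATP-based viability; confirmation added three slower-growing patient lines.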
# astro = experiment: as above; details: viability, ATP luminescence, 48 h; activity, negative = cell killing: at 45.9 µM (top of the series) unless noted
# How it was run: as §1
# Tags give direction and shape of the fitted curve.
smiles,measurement,setting,value
COc1cc(Cc2cnc(N)nc2N)cc(OC)c1OC,"activity change, negative = inhibition",[1]; at 17.2 µM (top of the series),inactive: -13.2%
same,"activity change, negative = inhibition",[1]; at 38 µM (top of the series),inactive: -9.42%
same,"activity change, negative = inhibition",[2],inconclusive: -22.3%
same,Potency,[3],"inconclusive [falling, partial curve]"
same,"activity change, negative = inhibition",[4],inconclusive: -16.2% [phenotype inactive]
same,Potency,[5],"inconclusive [inhibitor, partial curve, poor fit]"
same,Potency,[6],inactive
same,"viability change, negative = cytotoxic",[7],inactive: 0.026%
same,Potency,[8],"inconclusive [inhibitor, full curve, poor fit]"
same,Potency,[9],"inconclusive [activator, single point]"
same,Potency,[10],inactive
same,Potency,[11],inactive
same,Potency,[12],inactive
same,Potency,[13],"inconclusive [inhibitor, single point]"
same,Potency,[14],inactive
same,Potency,[15],"inconclusive [cytotoxic, partial curve, poor fit]"
same,Potency,[16],inactive
same,Potency,[17],inactive
same,Potency,Papain (Carica papaya),"inconclusive [inhibitor, partial curve, poor fit]"
same,Potency,[18],inactive
same,Potency,SKOV3,"inconclusive [cytotoxic, partial curve, poor fit]"
same,Potency,[19],"inconclusive [inhibitor, single point]"
same,Potency,astro,inactive
